From PubChem BioAssay AID1347165 (National Center for Advancing Translational Sciences (NCATS), 2019)
The whole screen tested about 220,000 compounds, of which about 5,700 (2.6%) were called active. The shares of active, inactive and inconclusive entries below differ from those in the screen. Calls follow the shape of the dose curve; as a rule, active = well fitted inhibition curve with a large enough effect; inconclusive = small, poorly fitted or top-dose-only effect; inactive = no such curve, though single readings can be large or run the other way. Potencies beside an inconclusive call are fits to weak or partial responses and may not hold up.

target: Lysine-specific demethylase 5B (Homo sapiens) (UniProt Q9UGL1); experiment: Primary screen for KDM5B Histone Demethylases FDH-coupled qHTS; settings: FDH-coupled NADH fluorescence (FDH is formaldehyde dehydrogenase); activity change, negative = inhibition: at 57.7 µM (top of the series) unless noted; also: nearly all actives have a fitted effect of over 70% in size; as to activity change, negative = inhibition: 0% is about no effect
Sequence of UniProt Q9UGL1 (Q9UGL1 whole entry, looked up): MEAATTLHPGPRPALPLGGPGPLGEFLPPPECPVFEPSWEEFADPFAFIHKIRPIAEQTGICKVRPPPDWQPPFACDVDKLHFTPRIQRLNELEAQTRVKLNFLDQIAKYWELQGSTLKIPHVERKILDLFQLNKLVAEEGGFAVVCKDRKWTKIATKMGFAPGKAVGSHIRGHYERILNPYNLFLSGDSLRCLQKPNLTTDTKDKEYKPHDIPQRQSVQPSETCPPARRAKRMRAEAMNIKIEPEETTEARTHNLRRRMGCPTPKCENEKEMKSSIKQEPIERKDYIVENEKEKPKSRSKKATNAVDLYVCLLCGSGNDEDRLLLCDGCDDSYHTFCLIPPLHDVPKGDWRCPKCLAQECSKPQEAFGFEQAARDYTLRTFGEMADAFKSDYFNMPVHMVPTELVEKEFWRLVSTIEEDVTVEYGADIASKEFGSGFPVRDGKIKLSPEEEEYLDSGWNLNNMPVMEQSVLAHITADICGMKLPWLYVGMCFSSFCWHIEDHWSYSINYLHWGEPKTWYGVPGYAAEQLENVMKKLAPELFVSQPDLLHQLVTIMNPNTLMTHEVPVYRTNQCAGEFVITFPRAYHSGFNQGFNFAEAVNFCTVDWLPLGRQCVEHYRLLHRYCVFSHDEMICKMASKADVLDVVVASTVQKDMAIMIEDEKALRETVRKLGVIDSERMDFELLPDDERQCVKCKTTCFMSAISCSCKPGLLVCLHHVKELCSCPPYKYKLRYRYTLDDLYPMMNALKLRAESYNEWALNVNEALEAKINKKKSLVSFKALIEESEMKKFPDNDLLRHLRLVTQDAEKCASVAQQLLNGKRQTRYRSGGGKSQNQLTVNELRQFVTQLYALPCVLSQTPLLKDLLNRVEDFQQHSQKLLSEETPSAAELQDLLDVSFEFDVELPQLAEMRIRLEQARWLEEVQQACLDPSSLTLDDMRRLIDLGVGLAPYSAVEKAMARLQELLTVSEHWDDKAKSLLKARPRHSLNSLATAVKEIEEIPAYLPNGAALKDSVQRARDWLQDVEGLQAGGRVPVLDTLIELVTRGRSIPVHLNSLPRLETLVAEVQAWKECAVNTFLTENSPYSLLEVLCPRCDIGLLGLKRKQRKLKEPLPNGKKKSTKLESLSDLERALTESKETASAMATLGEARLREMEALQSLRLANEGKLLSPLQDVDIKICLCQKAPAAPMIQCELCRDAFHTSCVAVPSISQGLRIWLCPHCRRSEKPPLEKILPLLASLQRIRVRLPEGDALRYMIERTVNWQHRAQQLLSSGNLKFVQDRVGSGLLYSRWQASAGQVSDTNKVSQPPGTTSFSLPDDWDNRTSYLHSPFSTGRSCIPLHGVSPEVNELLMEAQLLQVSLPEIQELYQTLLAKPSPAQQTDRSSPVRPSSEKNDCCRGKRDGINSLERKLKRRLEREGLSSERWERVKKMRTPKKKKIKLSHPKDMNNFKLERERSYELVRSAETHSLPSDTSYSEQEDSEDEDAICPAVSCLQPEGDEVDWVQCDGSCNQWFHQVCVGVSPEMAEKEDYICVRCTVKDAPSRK
How it was run: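 Coupled FDH/NAD⁺ fluorescence readout. KDM5BΔAP 200 nM final; compound titration, 10 min RT preincubation; substrate mix 12.5 µM H3K4me3, 25 µM 2-OG, 50 µM Fe(II), 100 µM ascorbate, 0.25 mM NAD⁺, 0.25 U/mL FDH; ΔRFU over 30 min.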
Potency is read from the fitted curve at half-maximal effect; tags tell the direction and shape of the fitted curve.

Row | Compound | activity change, negative = inhibition | Potency
1 | CN(c1ccc(Cl)c(Cl)c1)C1CNC1 | inactive: -22.3% [at 149 µM] | –
2 | CCOc1ccc(CNC(=O)CCn2c(=O)c3cccn3c3cccnc32)cc1 | inactive: -49.1% | –
3 | CCc1ccccc1N(C)C(=O)Nc1cn(CC(C)C)c(=O)c2ccccc12 | – | inconclusive: 35.5 µM [inhibitor, partial curve, poor fit]
4 | COCC1CN(C(C)=O)CC12CCN(Cc1ccc3[nH]ccc3c1)CC2 (centres undefined) | inactive: 8.76% | –
5 | FC(F)(F)c1cccc2c(N3CCC4(CCCN4Cc4ncc[nH]4)CC3)ccnc12 | – | active: 28.2 µM
6 | CCCc1cc(=O)oc2c(C)c(OCc3nn[nH]n3)ccc12 | – | inconclusive: 28.2 µM [inhibitor, partial curve, poor fit]
7 | COc1cccc(CC(=O)N2CCCC(CN3CCCC3)CC2)c1 (centres undefined) | – | inconclusive: 25.1 µM [inhibitor, partial curve, poor fit]
8 | COc1cc2c(cc1NC(=O)Cc1ccccc1C)oc1ccccc12 | – | inconclusive: 35.5 µM [inhibitor, partial curve, poor fit]
9 | CC(C)NC(=O)c1ccc(-c2ccc(N3CCCCC3)nc2)cc1 | – | inconclusive: 31.6 µM [inhibitor, partial curve, poor fit]
10 | CN(C)c1ccc(NC(=O)N2CCN(c3cnccn3)CC2)cn1 | – | inconclusive: 17.8 µM [inhibitor, partial curve, poor fit]
11 | COc1ccc(-c2[nH]ncc2CNC(=O)C2NCCc3[nH]cnc32)cc1 (centres undefined) | – | inconclusive: 20 µM [inhibitor, partial curve, poor fit]
12 | Cc1oc(-c2cccs2)nc1CC(=O)N1CCCC1c1ccccc1 (centres undefined) | inactive: 724% | –
13 | CC(NC(=O)/C(C#N)=C\c1ccc(C(C)(C)C)cc1)c1ccccc1 (centres undefined) | – | inconclusive: 20 µM [inhibitor, single point]
14 | O=C(Cn1cc(S(=O)(=O)N2CCN(c3ccccc3F)CC2)c2ccccc2c1=O)Nc1cccc(C(F)(F)F)c1 | – | inconclusive: 17.8 µM [inhibitor, partial curve, poor fit]
15 | O=S(=O)(CCN1CCC2(CC1)OCCO2)c1ccccc1 | inactive: 17.1% | –
16 | Cc1ccccc1CNC(=O)CCCn1c(=O)c2cccn2c2ccccc21 | – | inconclusive: 28.2 µM [inhibitor, partial curve, poor fit]
17 | Cc1c(CC(=O)NCCN2CCOCC2)c(=O)oc2c(C)c(O)ccc12 | – | inconclusive: 22.4 µM [inhibitor, partial curve, poor fit]
18 | Cc1cccc2c1-c1sc(C(=O)N3CCN(c4ccc(F)cc4)CC3)cc1CO2 | – | inconclusive: 31.6 µM [inhibitor, partial curve, poor fit]
19 | CCOc1cccc(CC(=O)N2CCc3c([nH]c4ccccc34)C2c2ccc(C)cc2)c1OCC (centres undefined) | inactive: -28.2% | –
20 | CC(CNC(=O)c1ccc(CSc2nc3ccncc3n2Cc2cccc(F)c2)cc1)c1ccccc1 (centres undefined) | – | inconclusive: 22.4 µM [inhibitor, single point]
21 | Cc1ccccc1C(=O)OCC(=O)Nc1cc(F)cc(F)c1 | inactive: -19.9% | –
22 | COc1ccc(C(=O)Nc2ccc3c(c2)N(C2CCCC2)C(=O)c2ccccc2S3)cc1OC | – | inconclusive: 28.2 µM [inhibitor, partial curve, poor fit]

Row | Compound | activity change, negative = inhibition | Potency
23 | O=[N+]([O-])c1ccc(N/N=C/c2cccs2)c(S(=O)(=O)Nc2ccccc2Cl)c1 | inactive: 11.7% | –
24 | O=C(NCc1ccc(F)cc1)c1ccnc(-c2nnc3ccc(Nc4ccccc4)nn23)c1 | – | inconclusive: 31.6 µM [inhibitor, single point]
25 | Cc1nc2ccn(Cc3cccnc3)c(=O)c2cc1C(=O)NCc1ccc(Cl)cc1 | – | inconclusive: 31.6 µM [inhibitor, partial curve, poor fit]
26 | COc1ccccc1CNC(=O)CCCn1nc(C)c2c(C)n(-c3ccc(C)cc3)nc2c1=O | inconclusive: -33.2% [inhibitor] | –
27 | COc1cccc(/C=N/NC(=O)c2ccc3nc[nH]c3c2)c1O | – | inconclusive: 28.2 µM [inhibitor, partial curve, poor fit]
28 | O=C(COc1ccccc1)N1CCC(c2nc(C3CCOCC3)no2)C1 (centres undefined) | – | inconclusive: 31.6 µM [inhibitor, partial curve, poor fit]
29 | COc1cccc(NC(=O)NC2CCN(c3nc(C)cc(C)n3)CC2)c1 | inactive: 9.53% | –
30 | COc1cc(C2C(C(=O)OC(C)C)=C(C)N=C3SCCC(=O)N32)ccc1OCc1ccccc1 (centres undefined) | – | inconclusive: 28.2 µM [inhibitor, partial curve, poor fit]
31 | COc1ccc(OC)c(NC(=O)c2c(NCc3ccc(C)o3)sc3c2CCCCC3)c1 | – | inconclusive: 10 µM [inhibitor, partial curve, poor fit]
32 | Cc1cc(Nc2ccccc2Cl)n2nc(-c3ccco3)nc2n1 | – | inconclusive: 39.8 µM [inhibitor, single point]
33 | COc1ccc(C)cc1N(C)C(=O)Cn1nc(Cc2ccncc2)c2ccccc2c1=O | inactive: -5.85% | –
34 | Cc1nc2c(OCC(=O)OC(C)(C)C)cccn2c(=O)c1-c1cc(C)n(-c2ccc(Cl)cc2)n1 | – | active: 28.2 µM
35 | COc1ccc2[nH]c(=O)c(CCC(=O)NCCc3ccccn3)cc2c1 | – | inconclusive: 28.2 µM [inhibitor, partial curve, poor fit]
36 | C=CCN(C)C(=O)[C@@H](C)C1CC[C@@]2(C)Cc3sc(NC(=O)CN(C)C)nc3[C@@H](C)[C@@H]2[C@H]1O (some centres undefined) | inactive: 2.61% | –
37 | CN(C)C[C@@H]1CN(c2ncccn2)C[C@H]1NC(=O)c1cnn(C)c1 | – | active: 28.2 µM
38 | COc1cccc(C(N)=O)c1OC(=O)Cc1ccccc1F | – | inconclusive: 1.78 µM [inhibitor, full curve, poor fit]
39 | Cc1ccn2c(=O)c(C(=O)NCCc3ccc(S(N)(=O)=O)cc3)c(O)nc2c1 | – | inconclusive: 3.98 µM [inhibitor, full curve, poor fit]
40 | CCc1noc(-c2cccn3c(CNC(=O)COc4cccc(C)c4)nnc23)n1 | – | inconclusive: 17.8 µM [inhibitor, single point]
41 | COc1ccccc1CNC(=O)C1CCN(S(=O)(=O)c2c(C)noc2/C=C/c2cccs2)CC1 | – | inconclusive: 14.1 µM [inhibitor, partial curve, poor fit]
42 | FC(F)(F)c1cccc(CSc2ncnc3sc(-c4ccccc4)cc23)c1 | inactive: 10.6% | –
43 | CCN(CC)CCNc1nc2c(c(=O)n(C)c(=O)n2C)n1Cc1ccc(C)cc1 | inactive: -4.12% | –
44 | CC(C)Nc1ccc2nnc(-c3ccccn3)n2n1 | – | inconclusive: 63.1 µM [inhibitor, single point]

Row | Compound | activity change, negative = inhibition | Potency
45 | CN1CC(=O)N(C2CCCNC2)Cc2c(NCC3CCCCC3)ncnc21 (centres undefined) | – | inconclusive: 56.2 µM [inhibitor, partial curve, poor fit]
46 | COc1ccc(CCNc2ncnc3c2c(-c2ccccc2)cn3-c2cccc(Cl)c2)cc1OC | – | inconclusive: 39.8 µM [inhibitor, single point]
47 | COc1ccccc1N1CCN(S(=O)(=O)CCNC(=O)COc2ccc(F)cc2)CC1 | – | inconclusive: 8.91 µM [inhibitor, partial curve, poor fit]
48 | Cc1ccc(NC(=O)c2nc3ccccc3nc2N2CCN(C)CC2)cc1C | inactive: 3.3% | –
49 | CN(C)CCNC(=O)c1nc2nc(-c3ccccc3)c(-c3cccnc3)cc2n1C | – | active: 20 µM
50 | Cc1ccc(CNC(=O)Cn2c(=O)cc(-c3ccccc3)c3c(C)nn(C)c32)cc1 | – | inconclusive: 31.6 µM [inhibitor, single point]
51 | Cn1ccc2c(C(=O)NCc3cccnc3)nc(-c3ccccc3)cc21 | – | active: 31.6 µM
52 | COc1cc(OC)c(NC(=O)Cn2ccn3nc(-c4ccccc4)c(CO)c3c2=O)cc1Cl | – | inconclusive: 35.5 µM [inhibitor, partial curve, poor fit]
53 | COC(=O)Oc1ccc2c(=O)c(Oc3ccc(-c4ccccc4)cc3)coc2c1 | – | inconclusive: 35.5 µM [inhibitor, partial curve, poor fit]
54 | COC(=O)c1sccc1NC(=O)c1ccccc1F | – | inconclusive: 25.1 µM [inhibitor, partial curve, poor fit]
55 | CCOC(=O)c1c(NC(=O)CSc2cn(CCNC(=O)c3ccccc3OC)c3ccccc23)sc2c1CCCC2 | – | inconclusive: 25.1 µM [inhibitor, single point]
56 | COC(=O)c1c(SCC(=O)Nc2ccc(Cl)cc2F)nc(=O)[nH]c1C | inactive: -9.19% | –
57 | CC(Sc1nc(CN2CCOCC2)nc2ccccc12)C(=O)c1cccc(Cl)c1 (centres undefined) | inactive: -3.96% | –
58 | CCOC(=O)N1CCN(C(=O)CNC(=O)c2cc3cc(OC)c(OC)cc3n2C)CC1 | – | inconclusive: 20 µM [inhibitor, partial curve, poor fit]
59 | Cc1ccc(CN2CC3ON=C(C(=O)O)C3C2)cc1 (centres undefined) | – | inconclusive: 100 µM [inhibitor, partial curve]
60 | COCCNc1cc(-c2noc([C@@H]3CCCN3CC(C)C)n2)ccn1 | – | active: 31.6 µM
61 | CC(C(=O)N1CCc2onc(-c3cccc4ccccc34)c2C1)n1ccnc1 (centres undefined) | – | inconclusive: 31.6 µM [inhibitor, single point]
62 | O=[N+]([O-])c1ccc(S(=O)(=O)N2CCN(C3CCN(Cc4ccccc4)CC3)CC2)cc1 | – | inconclusive: 22.4 µM [inhibitor, partial curve, poor fit]
63 | Cc1ccc(C(C)C)c(OCC(=O)Nc2ccc3c(c2)nc(CCNC(=O)c2ccco2)n3C)c1 | – | inconclusive: 39.8 µM [inhibitor, single point]
64 | CCOC(=O)C1CCN(C(=O)C2CCN(S(=O)(=O)c3c(C)noc3/C=C/c3ccc(C)cc3)CC2)CC1 | – | inconclusive: 31.6 µM [inhibitor, partial curve, poor fit]
